PubChem BioAssay AID1963576 (National Center for Advancing Translational Sciences (NCATS), 2024)
Among all 46,000 compounds or so, about 60 (0.1%) were called active. Inconclusive results (about 3%) are left out. Calls follow the shape of the dose curve; as a rule, active = well fitted inhibition curve with a large enough effect; inconclusive = small, poorly fitted or top-dose-only effect; inactive = no such curve, though single readings can be large or run the other way. The list shows a part of the results.

assay: Primary qHTS assay for Inhibitors of ovarian cancer metastasis using an organotypic tumor microenvironment (TME) model.; also: nearly all actives have a fitted effect of over 65% in size;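 as to activity change, negative = inhibition: plate controls were DMSO wells for no effect and tomatine positive control wells for full effect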; conditions: SKOV3ip1-GFP adhesion/invasion on 3D omental model, fluorescence; series mostly up to 45.8 µM; activity change, negative = inhibition: at the top concentration
Procedure, shortened: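 qHTS, 4-pt dose (0.36-46 umol/L); SKOV3ip1-GFP, 1,200 cells/well, no FBS; primary omental fibroblast/mesothelial co-culture 48 h pre-grown; 2 h RT + 16 h 37 C; PBS wash, 4% PFA; GFP count 488/509 nm.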

Activity change, negative = inhibition, inactive:
Cc1oc(-c2cccc(Cl)c2)nc1Cn1c(SCc2ccc(F)cc2)nc2cccnc21 -9.31%, COc1cc2c(C(=O)N(C)c3cccc(C(F)(F)F)c3)cn(CC(C)C)c(=O)c2cc1OC 2.46%, COc1cc2c(cc1OC)C(COc1cc(C)cc(C)c1)N(C(=O)C(C)(C)C)CC2 (stereo unspecified) -2.27%, CCC(Nc1ccc(-c2nc(-c3ccccn3)no2)cc1[N+](=O)[O-])c1ccccc1 (stereo unspecified) 8.6%, CCCCN(C)C(=O)CCC(=O)NNc1nc2ccccc2c2nc(C)nn12 3.69%, Cc1cc2n(n1)CCCN2C(=O)Nc1ccccc1C(F)(F)F 9.9%, CCc1ccc(S(=O)(=O)c2nnn3c2nc(N(CC)Cc2ccccc2)c2cc(Cl)ccc23)cc1 0.475%, Cc1ccc(C2CC(=O)Nc3c2c(C)nn3-c2nc(C)cc(C)n2)c(C)c1 (stereo unspecified) 4.46%, COc1cc(CN(C(=O)COc2ccccc2)c2ccccn2)cc(OC)c1OC 3.82%, CCC(C)OC(=O)/C(C#N)=C/c1ccc(-c2ccc(Br)cc2)o1 (stereo unspecified) -23.8%, COc1cccc(NC(=O)C2CCCN(c3ncnc4onc(C)c34)C2)c1 (stereo unspecified) 7.06%, CCC1=C(C)CN(C(=O)NCCc2ccc(S(=O)(=O)NC(=O)NC3CCC(C)CC3)cc2)C1=O (stereo unspecified) 17.8%, CCc1ccc(NC(=O)c2cc(=O)c3ccc(C)c(C)c3o2)cc1 -18.5%, COc1ccc(NC(=O)CNC(=O)Cn2ccc3ccccc3c2=O)cc1OC 5.85%, CNC(=O)c1cnc2sc(N3CCC(C)CC3)nn2c1=O 2.78%, CCCCCOc1ccc(/C=C/C(=O)Nc2sc3c(c2C(=O)OCC)CCC3)cc1OC 1.11%, CNC(=O)c1cc(COc2nnc(Nc3ccc(Cl)cc3)c3ccoc23)ccn1 -9.55%, O=C(Nc1ccccc1C(=O)N1CCCCC1)c1nsc2ccccc12 5.36%, Cc1cccc(N2CCN(CCCNc3ncnc4onc(-c5ccc(F)cc5)c34)CC2C)c1 (stereo unspecified) 0.478%, O=C(Nc1ccc(F)c(F)c1)c1cc(S(=O)(=O)NC2CCCC2)ccc1F 9.69%, COc1cccc(C(=O)Nc2ccc3nc(SCCOc4ccccc4)sc3c2)c1 -20.8%, CCCCc1ccc(NS(=O)(=O)c2ccc(C)c(C(=O)N3CCN(c4cccc(C)c4C)CC3)c2)cc1 14.3%, Cc1ccc2c(=O)cc(C(=O)Nc3sc4c(c3C(=O)NCc3cccnc3)CCCC4)oc2c1 -4.85%, COc1cccc2cc(C(=O)Nc3ccc(C)cc3)c(=O)oc12 -0.558%, Cc1ccc(CCNC(=O)c2ccc3c(c2)N(Cc2cccc(F)c2)C(=O)c2ccccc2S3)cc1 2.2%, Cc1cc(NS(=O)(=O)c2ccc(NC(=O)COc3cc(C)c(Br)cc3C(C)C)cc2)no1 -4.97%, CC(C)CCNC(=O)c1ccc2nc(Cc3ccccc3)oc2c1 8.04%, Cc1ccc(CN(C(=O)COc2ccc(F)cc2)C2CCS(=O)(=O)C2)o1 (stereo unspecified) 1.71%, CCn1cc(S(=O)(=O)c2ccccc2)c(=O)c2cc(F)c(F)cc21 8.08%, CCCSCCCNC(=O)Cn1c(-c2cccs2)cc2ccccc21 2.2%, CCOC(=O)c1cc(NC(=O)c2ccc(F)cc2)c(=O)n2c1oc1ccc(Cl)cc12 -1.31%, O=C(Nc1c2c(nn1-c1ccc(Cl)cc1)CS(=O)(=O)C2)c1ccc(Br)cc1 8.24%, COc1ccc(S(=O)(=O)N(CC(=O)Nc2ccc(Br)cc2)Cc2ccccc2)cc1 -0.252%, Cc1ccc(NC(=O)C2CCCN(S(=O)(=O)c3cccs3)C2)c(C)c1 (stereo unspecified) -0.8%, COC(=O)CN1C(C(=O)c2ccccc2)=C(OC(=O)c2ccccc2)c2ccccc2S1(=O)=O -6.95%, CCCCN(CCCC)C(=O)c1c[nH]c2ccc(S(=O)(=O)Nc3cccc(Cl)c3C)cc2c1=O 0.0415%, Cc1ccc(C(=O)Nc2cnc3ccccn3c2=O)cc1 3.96%, CCCn1c2ccccc2c2cnn(CC(=O)N3CCCC(C(=O)OCC)C3)c(=O)c21 (stereo unspecified) -5.19%, CCN(CC)CCCNC(=O)c1sc2nc3n(c(=O)c2c1C)CCCCC3 -0.88%, CN(CC(=O)Nc1ccc(F)cc1F)S(=O)(=O)c1cccc2nsnc12 0.487%, COc1ccc(-c2noc(CSc3nnc(Cc4ccccc4)n3-c3ccc(F)cc3)n2)cc1 20.5%, Cc1ccc(Cn2c(CN3CCC(C(=O)O)CC3)cc3ccccc32)cc1 -5.08%, CCc1ccc(NC(=O)CSc2nnc(CC)c(CC)n2)cc1 4.72%, CCN(CC)S(=O)(=O)c1cc(-c2ccc(=O)n(C(C)C(=O)Nc3cccc(C#N)c3)n2)ccc1C (stereo unspecified) -1.29%, CCOC(=O)C1CCN(C(=O)c2cnn(-c3ccc(F)cc3)c2-n2cccc2)CC1 -0.728%, CCOC(=O)c1[nH]c2c(c1Cc1ccccc1)C(=O)CC(c1ccc(C(C)(C)C)cc1)C2 (stereo unspecified) 6.57%, COc1cc(C2c3c(-c4c(C)cc(C)cc4O)n[nH]c3C(=O)N2Cc2ccco2)cc(OC)c1OC (stereo unspecified) -0.124%

outcome, inactive:
Cc1cccc(N2CCn3c2nc2c3c(=O)n(CCCc3ccccc3)c(=O)n2C)c1, COC(=O)CN1C(=O)CSc2ccc(S(=O)(=O)Nc3ccc(C)c(Cl)c3)cc21, CCc1ccc2oc(-c3cc(NC(=O)c4cccs4)ccc3Cl)nc2c1, CCC(C)NC(=O)Cn1ccc2cc(S(=O)(=O)N3CCCCCC3)ccc21 (stereo unspecified), O=C(CCNS(=O)(=O)c1ccc2c(c1)CCN2C(=O)C1CC1)Nc1ccc(OC(F)(F)F)cc1, CCOC(=O)c1ccc(NC(=O)C2=C(C)C(=O)OC23CCN(C(C)C)CC3)cc1, COc1ccc(-c2cc(C(F)(F)F)nc(SCC(=O)NC(C)c3ccccc3)n2)cc1 (stereo unspecified), CCOc1ccc(N(CC)C(=O)Cn2cnc3sc(C)c(S(=O)(=O)N4CCN(c5ncccn5)CC4)c3c2=O)cc1, O=C(NCC(c1cccnc1)N1CCc2ccccc21)c1ccc(Cl)cc1 (stereo unspecified), Cc1cc(O)c(CN2CCN(c3ccccc3)CC2)c2oc(=O)cc(C)c12, Cc1ccc(NC(=O)CCCn2nc(C)c3c(C)n(-c4ccccc4)nc3c2=O)c(Cl)c1, CCCN1C(C(=O)c2ccccc2)=C(OC(=O)COc2ccc(C)cc2)c2ccccc2S1(=O)=O, Cc1nc(-c2ccc(S(=O)(=O)NCc3ccccc3Cl)cc2)co1, Cc1cc(C)cc(N(CC(=O)Nc2c(C)cc(C)cc2C)S(=O)(=O)c2c(C)nn(C)c2C)c1
